Experimental data as given in PubChem BioAssay (NCI).
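A five-concentration, 48-hour dose response in 96-well plates underlies each endpoint, interpolated linearly between surrounding concentrations. TGI: concentration producing complete growth inhibition.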

Tested on: NCI-H322M lung
Assay: NCI tumour cell line growth inhibition, 48 h

| SMILES | TGI [µM] |
| --- | --- |
| CC(C)OC(=O)C1=C2c3ncccc3C(=O)N2[C@@H](Cl)[C@H](Cl)[C@H]1Cl | > 100 |
| CC(C)(Cl)C(Br)CCC(C)(Br)C(Br)CBr (configuration not stated) | 53 |
